Source: article PMC12796746
No constants are given. Whether binding was seen depends on the method and setting.

By UniProt entry, the sequences of proteins in these tests, tags left out.
UniProt Q9BUT1: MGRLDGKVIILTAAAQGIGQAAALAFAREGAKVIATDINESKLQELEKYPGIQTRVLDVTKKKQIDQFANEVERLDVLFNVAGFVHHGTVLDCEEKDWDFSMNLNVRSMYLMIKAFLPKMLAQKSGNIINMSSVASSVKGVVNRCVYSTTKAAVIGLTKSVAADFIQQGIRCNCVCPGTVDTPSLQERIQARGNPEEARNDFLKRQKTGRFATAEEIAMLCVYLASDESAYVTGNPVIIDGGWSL
UniProt Q8N6T3: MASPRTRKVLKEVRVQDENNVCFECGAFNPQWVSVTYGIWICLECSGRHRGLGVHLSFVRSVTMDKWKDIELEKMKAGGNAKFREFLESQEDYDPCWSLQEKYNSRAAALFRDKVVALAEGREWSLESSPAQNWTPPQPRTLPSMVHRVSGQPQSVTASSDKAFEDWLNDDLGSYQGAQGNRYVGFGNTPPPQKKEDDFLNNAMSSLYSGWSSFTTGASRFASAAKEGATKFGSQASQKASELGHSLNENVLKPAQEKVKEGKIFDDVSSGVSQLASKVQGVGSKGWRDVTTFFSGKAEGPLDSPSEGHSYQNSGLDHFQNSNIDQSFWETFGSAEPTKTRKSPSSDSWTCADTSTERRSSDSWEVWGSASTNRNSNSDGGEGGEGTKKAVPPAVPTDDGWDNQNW
UniProt Q5XKR9: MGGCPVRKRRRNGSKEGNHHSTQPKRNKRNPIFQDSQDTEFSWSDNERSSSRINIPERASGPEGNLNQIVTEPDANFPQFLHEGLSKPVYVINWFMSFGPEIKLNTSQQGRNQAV

How the values were obtained:
Experiment in all cases: peptide or protein array; HuProt Human Proteome Microarray v2.0, full-length human proteins spotted in duplicate; V5-tagged TRPV4 protein in solution at 1 μM, 1 h at 4 °C, 150 mM NaCl, 2.7 mM KCl, 25 mM Trizma base, 0.05% Tween-20, pH 7.4; detected with Alexa Fluor 647 anti-V5; hit: z-score >= 2 (N terminus: both of 2 slides; ARD constructs: at least 2 of 3 slides); both purified
[1] = molecular target: T1, Telomeric repeat-binding factor 2-interacting protein 1 (human) (UniProt Q9NYB0)
T1 sequence: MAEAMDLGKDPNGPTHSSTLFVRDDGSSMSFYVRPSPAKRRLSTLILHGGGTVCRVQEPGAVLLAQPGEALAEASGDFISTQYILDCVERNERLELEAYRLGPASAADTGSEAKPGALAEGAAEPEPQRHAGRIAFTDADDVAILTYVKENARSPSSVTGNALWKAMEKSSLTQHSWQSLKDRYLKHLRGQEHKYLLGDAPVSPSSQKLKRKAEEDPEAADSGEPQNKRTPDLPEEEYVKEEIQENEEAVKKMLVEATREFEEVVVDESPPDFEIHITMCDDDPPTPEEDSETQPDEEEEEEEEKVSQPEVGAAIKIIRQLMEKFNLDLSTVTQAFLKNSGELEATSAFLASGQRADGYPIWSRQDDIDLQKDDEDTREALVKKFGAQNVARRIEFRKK

[2] = molecular target: 3-hydroxybutyrate dehydrogenase type 2 (human) (UniProt Q9BUT1)
[3] = molecular target: T2, ADP-ribosylation factor-like protein 10 (human) (UniProt Q8N8L6)
T2 sequence: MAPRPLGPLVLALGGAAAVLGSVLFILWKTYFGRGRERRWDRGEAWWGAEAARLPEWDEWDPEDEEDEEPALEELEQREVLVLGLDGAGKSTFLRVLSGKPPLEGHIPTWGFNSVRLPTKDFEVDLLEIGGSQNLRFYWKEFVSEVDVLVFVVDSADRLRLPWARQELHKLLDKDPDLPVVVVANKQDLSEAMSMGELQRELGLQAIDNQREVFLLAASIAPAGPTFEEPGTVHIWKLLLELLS

[4] = molecular target: ADP-ribosylation factor GTPase-activating protein 1 (human) (UniProt Q8N6T3)
[5] = molecular target: T3, DNA fragmentation factor subunit alpha (human) (UniProt O00273)
T3 sequence: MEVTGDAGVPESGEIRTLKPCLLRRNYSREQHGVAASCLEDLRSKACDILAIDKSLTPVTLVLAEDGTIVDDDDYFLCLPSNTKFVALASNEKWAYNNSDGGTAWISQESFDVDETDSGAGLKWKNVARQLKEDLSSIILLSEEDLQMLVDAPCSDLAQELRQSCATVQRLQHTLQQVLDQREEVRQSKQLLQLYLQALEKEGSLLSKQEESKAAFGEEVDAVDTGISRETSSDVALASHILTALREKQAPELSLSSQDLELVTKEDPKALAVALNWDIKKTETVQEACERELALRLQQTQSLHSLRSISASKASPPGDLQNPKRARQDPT

Protein FAM104B (human) = Protein FAM104B (human) (UniProt Q5XKR9)

Measured: binding

TRPV4^R315W-ARD (from UniProt Q9HBA0 149-397) (domain or fragment)
no binding (tested: 1 μM): all assays above

TRPV4^R269C-ARD (from UniProt Q9HBA0 149-397) (domain or fragment)
no binding (tested: 1 μM): all assays above
